Test results as given in PubChem BioAssay AID1963576 (National Center for Advancing Translational Sciences (NCATS), 2024).
The campaign covered roughly 46,000 compounds. About 60 (0.1%) were called active. Roughly 3% stayed inconclusive and do not appear here. The call rests on the fitted dose curve; in most records, active means well fitted inhibition curve with a large enough effect; inconclusive means small, poorly fitted or top-dose-only effect; inactive means no such curve, though single readings can be large or run the other way. The list shows a part of the results.

Test: Primary qHTS assay for Inhibitors of ovarian cancer metastasis using an organotypic tumor microenvironment (TME) model. Further: nearly all actives have a fitted effect of over 65% in size.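 On activity change, negative = inhibition: plate controls were DMSO wells for no effect and tomatine positive control wells for full effect.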
Details: SKOV3ip1-GFP adhesion/invasion on 3D omental model, fluorescence; series mostly up to 45.8 µM; activity change, negative = inhibition: at the top concentration
In short: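 Primary human omental fibroblast/mesothelial 3D culture pre-formed 48 h. SKOV3ip1-GFP cells added with compounds (0.36-46 umol/L), incubated 2 h RT/16 h 37 C, fixed; GFP cells quantified at 488/509 nm.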

Activity change, negative = inhibition, inactive:
COC(=O)c1ccc(Cn2nc(-c3ccc(C)cc3)ccc2=O)cc1 2.46%
CCOc1ccc(C(=O)Nc2ccc3oc(-c4ccc(Br)cc4)nc3c2)cc1 6.95%
CCOc1ccc(NS(=O)(=O)c2ccc3[nH]cc(C(=O)N4CCCCCC4)c(=O)c3c2)cc1 4.2%
COc1ccc(N(CC(=O)Nc2cc(Cl)ccc2C)S(=O)(=O)c2c(C)noc2C)cc1 -30.2%
COc1cccc(CNS(=O)(=O)c2ccc(-c3cc(C(F)(F)F)on3)s2)c1 6.63%
Cn1c(SCc2ccccc2Cl)nc2c([nH]c3ccccc32)c1=O -2.63%
COc1cccc(CN2C(=O)C3(SCC(=O)N3c3ccc(C(C)C)cc3)c3ccccc32)c1 (configuration not stated) -8.59%
NC(=O)CSc1nnnn1-c1cccc(O)c1 5.91%
CCc1cccc(NC(=O)c2oc3ccc4c(c3c2C)C(=O)CC(C)(C)O4)c1 5.03%
Cc1cccc(CCNC(=O)CCc2c(C)nc3ncnn3c2C)c1 -8.17%
COc1ccc(N2CCN(C(=O)c3sc4nc5n(c(=O)c4c3C)CCC5)CC2)cc1 -3.23%
COc1ccc(Cc2nc3ccc(C(=O)NCCCN4CCN(C)CC4)cc3o2)cc1 13.4%
Cc1ccccc1-c1nc(SCC(=O)NCC2CCCO2)c2c(=O)n(C)c(=O)n(C)c2n1 (configuration not stated) 4.34%
Cc1cc(C(=O)Nc2cccc(F)c2)c2c(C)nn(-c3cccc(Cl)c3C)c2n1 -4.83%
CCOc1ccc(C(=O)Nc2ccccc2OCc2cc(=O)n3ccccc3n2)cc1 -4.35%
CCCNC(=O)c1cnc2sc(N3CCCCCC3)nn2c1=O -0.201%
CCOC(=O)c1c(NC(=O)c2cc3nc(-c4ccccc4)cc(C(F)(F)F)n3n2)sc2c1CCC(C)C2 (configuration not stated) 4.97%
Cc1ccccc1C(=O)OCc1cc(=O)n2c(C)csc2n1 0.319%
CN(C)c1ccc(C(=O)Nc2cccc(-c3nc4cccnc4s3)c2)cc1 0.0106%
CCOC(=O)Cn1c(=O)n(-c2ccccc2OC)c2nc(-c3ccccc3F)nc(C(N)=O)c21 6.84%
CCOC(=O)N1CCC(=C2c3ccc(Cl)cc3CCc3cccnc32)CC1 -3.49%
COc1ccc(CCNC(=O)c2nc(SCc3ccc(C)cc3)ncc2Cl)cc1OC -19.4%
COc1ccccc1OCCCCn1c(-c2ccc(Cl)cc2)nc2ccccc2c1=O -2.53%
COc1cccc2cc(-c3csc(-c4ccc(Cl)cc4)n3)c(=O)oc12 0.391%
COc1cccc(Cn2c(SCC(=O)N(C)c3ccccc3)nc3ccccc32)c1 2.87%
Cc1ccc(CCNC(=O)c2cc(C)nc3c2c(C)nn3-c2ccc(C)cc2)cc1 5.94%
O=C(Nc1ccc(C(F)(F)F)cc1)C1CCN(c2cnccn2)CC1 3.28%
Cc1ccc(CCNC(=O)c2ccc(CNS(=O)(=O)c3ccccc3)cc2)cc1 7.42%
CCc1ccc(-n2nc(C)c3c(C(=O)Nc4cc(C)c(Cl)cc4OC)cc(C)nc32)cc1 4.3%
CCc1ccc(-c2nn(CC(=O)NCc3ccccc3)c3c2cnc2ccc(C)cc23)cc1 1.32%
Cc1ccc(-c2nc(CS(=O)(=O)CC(=O)NCc3ccc(Cl)cc3)c(C)o2)cc1 16.7%
COC(=O)c1ccc(Cn2c(SCc3ccccc3)nc3ccncc32)cc1 3.11%
Cc1ccccc1CNC(=O)c1ccc(CSc2nc3cccnc3n2Cc2ccccc2)cc1 4.79%
O=C(Nc1ccc(F)c(C(F)(F)F)c1)Nc1nnc(-c2ccncc2)s1 -2.45%
CCc1c(C)c2ccc(O)c(CN3CCN(c4ccc(OC)cc4)CC3)c2oc1=O -9.58%
Cc1cc(C)cc(NC(=O)Nc2ccccc2OCc2cc(=O)n3ccccc3n2)c1 0.186%
COc1cc(NC(=O)Cn2cnc3c2c(=O)n(C)c(=O)n3C)c(OC)cc1Cl -7.44%
CCOC(=O)c1c(NC(=O)/C(C#N)=C/c2ccccc2)sc2c1CCC2 -11.3%
CCOc1ccc(NC(=O)c2c(NC(=O)c3ccccc3F)sc3c2CCC3)cc1 2.25%
CCOc1ccccc1NC(=O)c1c(NCc2cccs2)sc2c1CCCCC2 -10.6%
CCN(CC)S(=O)(=O)c1ccc(NC(=O)c2c(C)oc3ncnc(N4CCOCC4)c23)cc1 -1.26%
CCn1c(C)c(C)c2cc(C(=O)NCc3ccc(OC)cc3OC)ccc21 -9.88%
COc1ccc2c(c1)CC(C(=O)NCCCN1CCN(c3ccccc3F)CC1)CO2 (configuration not stated) 10.5%
CCC(=O)N1CCc2cc(Br)cc(S(=O)(=O)CCC(=O)Nc3ccc(C)c(F)c3)c21 -2.23%
C#CCn1cnc2c(cnn2-c2ccc(F)cc2)c1=O 3.99%
COc1cccc2c1Oc1ncccc1N(C(=O)CCC(=O)NC(C)C)C2 4.71%
CCc1c(C)sc2c1CCN(C(=O)Nc1cc(Cl)c(OC)cc1OC)C2c1ccccc1 (configuration not stated) -4.62%
Cc1ccc(-c2nnc(Nc3ccc(OCC(N)=O)cc3)c3ccccc23)cc1S(=O)(=O)N(C)C 2.31%
CCOc1ccc(Nc2nc(C)c(NC(=O)c3ccc(C)cc3)c(Nc3ccc(OCC)cc3)n2)cc1 -15.8%
COc1cc(NC(=O)CC(C)S(=O)(=O)c2ccc3c(c2)CCN3C(C)=O)cc(OC)c1OC (configuration not stated) 19%

outcome, inactive:
CCOC(=O)c1ccc(N2C(=O)Cc3cc(OCC)c(OCC)cc3C2c2ccccc2)cc1 (configuration not stated)
O=C(c1ccc2c(c1)OCCO2)N(Cc1cccnc1)c1nc2c(F)cc(F)cc2s1
COCCNC(=O)c1ccc2c(=O)n(CCOC)c(SCC(=O)c3c[nH]c4ccccc34)nc2c1
CCc1nn(CC(=O)NCc2ccc(OC)c(OC)c2)c(=O)c2cc3sc(C)cc3n12
O=C(CN1CCSc2ccccc21)N1CCCCC1
CCOc1ccccc1NC(=O)Cn1c(=O)n(-c2ccc(F)cc2)c(=O)c2c3c(sc21)CN(C(C)=O)CC3
CC(C)c1ccc(NC(=O)CCS(=O)(=O)c2cccc3nonc23)cc1
CCc1ccc(-n2c(SCc3ccccc3C)nc3[nH]ncc3c2=O)cc1
CC(=O)Nc1ccc(NC(=O)c2cc3sccc3n2Cc2ccc(Cl)cc2)cc1
CCOc1cc(/C=C(\C#N)C(=O)Nc2ccc(C)cc2)ccc1OCc1cc(=O)n2nc(CC)sc2n1
CCC(=O)N1CCc2cc(CNS(=O)(=O)c3ccc(NC(=O)CC(C)C)cc3)ccc21
CC(C)(C)c1ccc(C2=NC(C)(C)N(CC(=O)Nc3ccc(F)c(F)c3)C2=O)cc1
